{"source": "PubChem BioAssay AID1508623", "about": "(National Center for Advancing Translational Sciences (NCATS), 2021)", "note": "The whole screen tested about 48,000 compounds, of which about 450 (0.94%) were called active. Roughly 19% stayed inconclusive and do not appear here. The call rests on the fitted dose curve; in most records, active means well fitted inhibition curve with a large enough effect; inconclusive means small, poorly fitted or top-dose-only effect; inactive means no such curve, though single readings can be large or run the other way. Some of the results follow. Potency means the concentration at half of the fitted maximal effect."}
{"experiment": "Primary qHTS for Identification of Small Molecule Inhibitors of Huntingtin Promoter Activity; further: nearly all actives have a fitted effect of over 50% in size", "conditions": "HEK293 HTT promoter firefly luciferase reporter (activity 0% = vehicle and -100% = no light), 24 h; series mostly up to 57.5 µM; activity change, negative = inhibition: at the top concentration", "in_short": "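Firefly luciferase signal from promoter-reporter HEK293 cells was scaled between vehicle (0%) and zero RLU (-100%). Compounds were tested at final concentrations of up to 57.5 uM over 24 h at 37 degrees C. PTC124 at 50 uM final served as control inhibitor.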"}
{"smiles": "O=C(c1ccc(Cl)cc1)N1CCN(CCc2ccncc2)CC1", "activity change, negative = inhibition": "inactive: 1.52%"}
{"smiles": "Cc1ccc(-c2nnc(Nc3cccc(Cl)c3)c3ccccc23)cc1S(=O)(=O)N1CCN(C)CC1", "activity change, negative = inhibition": "inactive: 0.0045%"}
{"smiles": "CCOc1ccc(Nc2cc(C(=O)NCc3ccccc3Cl)c3ccccc3n2)cc1", "activity change, negative = inhibition": "inactive: 4.12%"}
{"smiles": "Cc1cccc(NC(=O)Cn2c(=O)n(CCCCCC(=O)NCc3ccccc3)c(=O)c3sccc32)c1", "activity change, negative = inhibition": "inactive: -30.3%"}
{"smiles": "CCOC(=O)N1CCN(C(=O)c2ccc3c(c2)N(Cc2ccccc2F)C(=O)c2ccccc2S3(=O)=O)CC1", "activity change, negative = inhibition": "inactive: -18.4%"}
{"smiles": "CCc1ccc(NC(=O)CSc2nc3c(c(=O)[nH]2)CN(Cc2ccc4c(c2)OCO4)CC3)cc1", "activity change, negative = inhibition": "inactive: -30.7%"}
{"smiles": "O=C(COc1ccccc1)NCC(c1ccc(Cl)cc1)N1CCCCC1", "note": "(configuration not stated)", "activity change, negative = inhibition": "inactive: -24.5%"}
{"smiles": "O=C(CCCc1ccccc1)NC1CC(=O)N(c2cccc(F)c2)C1", "note": "(configuration not stated)", "activity change, negative = inhibition": "inactive: -6.59%"}
{"smiles": "O=C(Nc1ccc(Br)c(Cl)c1)c1ccc(C(=O)Nc2ccc(Br)c(Cl)c2)cc1", "activity change, negative = inhibition": "inactive: -9.78%"}
{"smiles": "COC(=O)C1=C(C)N(C(C)C)C(=O)C1(NC(=O)c1ccccc1OC)C(F)(F)F", "note": "(configuration not stated)", "activity change, negative = inhibition": "inactive: -11.2% [at 11.5 µM]"}
{"smiles": "CCCCCn1c(CCCNC(=O)c2ccc(Cl)cc2)nc2ccccc21", "activity change, negative = inhibition": "inactive: -24.2%"}
{"smiles": "COc1ccc(CNC(=O)CCc2nnc3n(C)c(=O)c4sccc4n23)cc1", "activity change, negative = inhibition": "inactive: -4.18%"}
{"smiles": "COc1ccc(-c2nc(C(=O)Nc3cccc(C(C)=O)c3)nn2-c2ccccc2Cl)cc1", "activity change, negative = inhibition": "inactive: -4.86%"}
{"smiles": "CCOc1cc(-c2nc(-c3ccc(-c4ccccc4)nc3OCC)no2)cc(OCC)c1OCC", "activity change, negative = inhibition": "inactive: 6.5%"}
{"smiles": "O=C(NCc1ccccc1Cl)c1ccccc1NC(=O)c1nsc2ccccc12", "activity change, negative = inhibition": "inactive: 79.1%"}
{"smiles": "COc1cc(OC)c(NC(=O)c2cnn(-c3ccccc3)c2-n2cccc2)cc1Cl", "activity change, negative = inhibition": "inactive: -11.2%"}
{"smiles": "COCCCNC(=O)c1cc2c(-c3cccc(OC)c3)nn(C)c2s1", "activity change, negative = inhibition": "inactive: -12.2%"}
{"smiles": "CCC(=O)N1CCc2cc(Br)cc(S(=O)(=O)Nc3ccccc3C(=O)OC)c21", "activity change, negative = inhibition": "inactive: -8.91%"}
{"smiles": "CCOC(=O)[C@H](CCc1ccccc1)N[C@H]1CS[C@H](c2cccs2)CN(CC(=O)O)C1=O", "activity change, negative = inhibition": "inactive"}
{"smiles": "CCc1ccc(NC(=O)c2cc(S(=O)(=O)N3CCCC(C)C3)cn2C)cc1", "note": "(configuration not stated)", "activity change, negative = inhibition": "inactive: -26.9%"}
{"smiles": "COc1cc(CN(C(=O)COc2ccc(F)cc2)c2ccccn2)cc(OC)c1OC", "activity change, negative = inhibition": "inactive: -12.4%"}
{"smiles": "CCOc1ccc(OCC(=O)Nc2ccc(S(=O)(=O)Nc3cc(C)on3)cc2)cc1", "activity change, negative = inhibition": "inactive: -0.802%"}
{"smiles": "COc1cc(NC(=O)CCN2CCN(CCO)CC2)cc(OC)c1", "activity change, negative = inhibition": "inactive: -11.1%"}
{"smiles": "CCc1nn(CC(=O)NCCc2ccc(SC)cc2)c(=O)c2cc3sccc3n12", "activity change, negative = inhibition": "inactive: -11.7%"}
{"smiles": "CCCc1cc(=O)n2[nH]c(NCc3c(F)cccc3Cl)nc2n1", "activity change, negative = inhibition": "inactive: -18.9%"}
{"smiles": "CCOC(=O)COc1ccc(-c2nnn(CC(=O)Nc3ccccc3)n2)cc1", "activity change, negative = inhibition": "inactive: 8.13%"}
{"smiles": "Cc1sc2c(c1C)c(=O)n(CCc1ccccc1)c(=O)n2Cc1ccc(C(C)(C)C)cc1", "activity change, negative = inhibition": "inactive: -4.35%"}
{"smiles": "CCn1c(CNC(=O)c2ccc(OC)cc2)nnc1SCC(=O)Nc1cc(C)ccc1C", "activity change, negative = inhibition": "inactive: -16.4%"}
{"smiles": "Cn1c(/C(C#N)=C/c2ccccc2Br)nc2ccccc21", "activity change, negative = inhibition": "inactive: 36.4%"}
{"smiles": "CCc1cccc(NS(=O)(=O)c2ccc3c(c2)CC(C)N3C(=O)C2CC2)c1", "note": "(configuration not stated)", "Potency": "active: 14.1 µM"}
{"smiles": "COc1ccccc1C(=O)NCc1nc2cccnc2n1Cc1ccc(F)cc1", "activity change, negative = inhibition": "inactive: 2.98%"}
{"smiles": "CCOCN(C(=O)Cn1c(COC)nc2ccccc21)c1c(C)cccc1CC", "activity change, negative = inhibition": "inactive: 17.5%"}
{"smiles": "O=C(Nc1ccc(Oc2ccc(Cl)cc2)c(Cl)c1)c1cc(I)cc(I)c1O", "activity change, negative = inhibition": "inactive: -1.25%"}
{"smiles": "COc1cccc(CNC(=O)C2CCCN(S(=O)(=O)N(C)c3ccc(F)cc3)C2)c1OC", "note": "(configuration not stated)", "Potency": "active: 25.1 µM"}
{"smiles": "Cc1cccc(NC(=O)CSC2=Nc3ccccc3C3=NC(CC(=O)NCc4cccs4)C(=O)N23)c1", "note": "(configuration not stated)", "activity change, negative = inhibition": "inactive: -2.48%"}
{"smiles": "COc1ccccc1/C=C/c1nc(C#N)c(NC2CCCCC2)o1", "activity change, negative = inhibition": "inactive: 7.32%"}
{"smiles": "COc1ccc(CNC(=O)CCCn2nc(C)n3c(cc4sccc43)c2=O)cc1", "activity change, negative = inhibition": "inactive: -7.72%"}
{"smiles": "COCCn1c(C)cc(O)c(C(c2ccccc2OC)N2CCN(c3ccccc3)CC2)c1=O", "note": "(configuration not stated)", "activity change, negative = inhibition": "inactive: -7.49%"}
{"smiles": "Cc1ccc(NC(=O)CN2C=NS(=O)(=O)c3ccccc32)cc1", "activity change, negative = inhibition": "inactive: -3.21%"}
{"smiles": "CCOC(=O)COc1ccc(CC)cc1C(=O)c1ccn2nc(-c3ccc(F)cc3)cc2n1", "activity change, negative = inhibition": "inactive: -6.27%"}
{"smiles": "COc1ccc(-c2noc(CC(=O)N(C)c3cccc(C)c3)n2)cc1", "activity change, negative = inhibition": "inactive: -9.64%"}
{"smiles": "CCOC(=O)c1cnc2ccc(Br)cc2c1NCCN1CCOCC1", "activity change, negative = inhibition": "inactive: -4.04%"}
{"smiles": "COc1ccc(C(=O)c2cn(Cc3ccccc3F)c3cc4c(cc3c2=O)OCCO4)cc1OC", "activity change, negative = inhibition": "inactive: 15.2%"}
{"smiles": "Cc1ccc(N2CC(NC(=O)c3ccccc3C(F)(F)F)CC2=O)cc1C", "note": "(configuration not stated)", "activity change, negative = inhibition": "inactive: -18.8%"}
{"smiles": "COc1ccc(Cl)cc1S(=O)(=O)Nc1ccc2[nH]c(=O)[nH]c2c1", "activity change, negative = inhibition": "inactive: -17.9%"}
{"smiles": "Clc1ccc2c(c1)-n1cc(-c3ccccc3)nc1CO2", "activity change, negative = inhibition": "inactive: 0.646%"}
{"smiles": "CCc1ccc(S(=O)(=O)c2cn(Cc3ccccc3)c3cc(N4CCCC4)c(F)cc3c2=O)cc1", "activity change, negative = inhibition": "inactive: 3.01%"}
